The results in this text go back to the RNAGym collection of RNA variant scans (doi:10.1093/nar/gkz1192).

The source gives no read counts; variants with many changes may rest on few reads.

B1: CPEB3 Ribozyme (parent)
chain: UAACAGGGGGCCACAGCAGAAGCGUUCACGUCGCAGCCCCUGUCAGAUUCUGGUGAAUCUGCGAAUUCUGCUGUAUAUCUC

The data set covers variants of B1. Description: self-cleavage, relative activity (ratio to wild type); higher = more cleavage; in vitro, sequencing. An outline of the steps:
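Libraries of CPEB3 self-cleaving ribozyme mutants came from rounds of error-prone PCR and carried barcodes, which DNA sequencing matched to variants. In vitro transcription used T7 RNA polymerase at 37°C for 5 hours, with a further 15 min in DNase I before EDTA stopped the reaction; the ribozymes cleaved during both steps. The RNA was reverse transcribed with template switching and sequenced on Illumina. Relative activity is the cleaved/total read fraction of a variant divided by that of the unmutated ribozyme, averaged over three batches with at least 5 reads.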
For the variant UAACGGGGGGCCACAGCAGAAGCGCUCACGUCGCAGCCCCAGUCAGAUUCUGGUGAAUCUGCGAAUUCUGCUGUAUAUCUC, the self-cleavage was found to be 0.44. Take UAACGGGGGGCCACAGCAGAAGCGUACACGUCGCAGCCCCUGUCAGAUUCUGGUGAAUCUGCGAGUUCUGCUGUAUAUCUC: the self-cleavage was found to be 0.32. On to UAACGGGGGGCCACAGCAGAAGCGCUCACGCCGCAGCCCCUGACAGAUUCUGGUGAAUCUGCGAAUUCUGCUGUAUCUCUC, for which the self-cleavage was found to be 0.11. With UAACGGGGGGCCACAGCAGAAGCGCUCACGUCGCAGCCCCUGUCAGAUUCUAGUGAAUCUGCGAAUUCUGCUGUAUAUCUC, the self-cleavage was determined as 0.38. With UAACGGGGGGCCACAGCAGAAGCGCCCACGUCGCAGCCCCUGUCAGAUUCUGGUGAAUCUGCGAAUUCUGCUGUAUACCUC, the self-cleavage stood at 0.8.

For the variant UAACGGGGGGCCACAGCAGAAGCGCUCACGUCGCAGCCCCAGUCAGAUUCUGGUGAAUCUGCGAAUCCUGCUGUAUAUCUC, the self-cleavage is 0.17.

Regarding UAACGGGGGGCCACAGCAGAAGCGCCCACGUCGCAGCCCCUGUCAGAUUCUGGUGUAUCUGCGAACUCUGCUGUAUAUCUC, the self-cleavage was 0.22. For UAACGGGGGGCCACAGCAGAAGCGCUCACGCCGCGGCCCCUGUCAGAUUCUGGUGAAUCUGCGAAUUCUGCUGUAUAUCUC, the self-cleavage worked out at 0.53. Regarding UAACGGGGGGCCACAGCAGAAGCGUCCUCGUCGCAGCCCCUGUCUGAUUCUGGUGAAUUUGCGUAUUCUGCUGUAUAUCUC, the self-cleavage is 0.09.

As to UAACGGGGGGCCACAGCAGAAGCGCUCACGUCGCAGCCCCUGUCAGAUUCUAGUGAAUCUGCGAAUUCUGCUGUAUAUCAC, the self-cleavage was 0.09.

Consider UAACGGGGGGCCACAGCAGAAGCGCUCACGCCGCAGCCCCUGUCUGAUUCUGGUGAAUCUGCGUAUUCUGCUGUAUAUCUC, for which the self-cleavage amounted to 0.07.

For UAACGGGGGGCCACAGCAGAAGCGCCCACGUCGCAGCCCCUGUCAGAUUCUGGUGAAUCUGCGAAUUCUGCCGUAUAUCUC, the self-cleavage came to 0.25. Turning to UAACGGGGGGCCACAGCAGAAGCGUCCGCGUCGCAGCCCCUGACAGAUUCUGGUGAUCCUGCGAAUUCUGCUGUAUAUCUC, the self-cleavage is 0.35. Take UAACGGGGGGCCACAGCAGAAGCGGUCACGUCGCAGCCCCUGUCAGAUUCUGGUGAAUCCGCGAAUUCUGCUGUAUAUCUC: the self-cleavage stood at 0.13. Next, UAACGGGGGGCCACAGCAGAAGCGGUCACAUCGCUGCCCCUGUCAGAUUCUGGUGAACCUGCGAAUUCCGCUGUAUAUCUC: 0.11. Next, UAACGGGGGGCCACAGCAGAAGCGCUCACGUUGCAGCCCCUGUCGGAUUCUGGUGAAUCUGCGAAUUCUGCUGUAUAUCUC: 0.1; UAACGGGGGGCCACAGCAGAAGCGUACACGUCGCAGCCCCUGUCAGAUUCAGGUGAAUCUGCGAAUUCUGCCGUAUACCUC: 0.29. As for UAACGGGGGGCCACAGCAGAAGCGCUCACGUCGCAGCCCCUGUCAGAUUCUGGUGAAUCUGCGAAUUCGGCCGUAUAUCUC, the self-cleavage is 0.37. Next, UAACGGGGGGCCACAGCAGAAGCGUACACGUCGCAGCCCCUGUCAGAUUCUGGUGAAUCUGCGAAUUCUGCUGUAUAUCAC: 0.72. For the variant UAACGGGGGGCCACAGCAGAAGCGUACACGUCGCAGCCCCUGUCAGAUUCCGGAGAAUCUGCGAGUUCUGCUGUAUAUCUC, the self-cleavage amounted to 0.07. Consider UAACGGGGGGCCACAGCAGAAGCGCGCACGUCGCUGCCCUUGUCAGAUACUGGUGAAUCUGCGAAUUCUGCUGUAUAUCUC, for which the self-cleavage turned out to be 0.04. The same measure for UAACGGGGGGCCACAGCAGAAGCGCUCACGGCGCAGCUCCAGUCAGAUUCUGGUGGAUCUGCGAGUUCUGCUGUAUAUCUC: 0.03; for UAACGGGGGGCCACAGCAGAAGCGUACACGUCGCAGCCCCUGUCAGAUUCUGGUGGUUCUGCGAAUUCUGCUGUAUAUCUC: 0.27.

In the case of UAACGGGGGGCCACAGCAGAAGCGCUCACGUCGCAGCCCCAGUCAGAUUCUAGUGAAUCUGCGAAUUCUGCUGUAUAUCUC, the self-cleavage worked out at 0.45.

Take UAACGGGGGGCCACAGCAGAAGCGUACACGUCGCAGCCCCUGUCAGAUUCUGGUGAAUCUGCGAAUUCUACCGUAUAUCUC: the self-cleavage worked out at 0.07.

As for UAACGGGGGGCCACAGCAGAAGCGCUCACGUCGCAGCCCCUGUCAGAUUCUGGUGAAUCUAUGAAUUCUGCAGUAUAUCUC, the self-cleavage amounted to 0.07.

In the case of UAACGGGGGGCCACAGCAGAAGCGCUCACGUCGCAGCCCCUGUCAGAUUCCGGUGAAUCUGCGAAUUCUGCUGUAUAUCCC, the self-cleavage amounted to 0.15. Regarding UAACGGGGGGCCACAGCAGAAGCGGUCACGUCGCAGCCCCUGUCAGAUUCUGGUGAAUCUGCGAAUUCUGCUGUAUAUCCC, the self-cleavage is 0.23. The same measure for UAACGGGGGGCCACAGCAGAAGCGCUCACGUCGCAGCCCCUGCCAGAUUCUGGUGAAUCUGCGAAUUCUGCUGUAUAUCUC: 0.53; for UAACGGGGGGCCACAGCAGAAGCGCUCACGUCGCAGCCCCUGACAGAUUCUGGUGAAUCUGCGAAUUCUGCUGUAUAUCUC: 0; for UAACGGGGGGCCACAGCAGAAGCGUACACGUCGCAGCCCCUGUCAGAUUUUGGUGAAUCUGCGAAUUCUGCUGUAUAUCUC: 0.58. Next, UAACGGGGGGCCACAGCAGAAGCGGUCACGUCGCAGCCCCUAUCAGAUCCUGGUGAAUCUGCGAAUUCUGCUGUAUAUCUC: 0.04; UAACGGGGGGCCACAGCAGAAGCGCUCACGUCGCAGCCCCUGUCAGAUUCUGGUGAAUCUGCGGGUUCUGCUGUAUAUCUC: 0.27. Next, UAACGGGGGGCCACAGCAGAAGCGCUCACGUCCCAGCCCCUGUCAGAUUCUGGUGAGUCUGCGAAUUCUGCUGUAUACCUC: 0.06.
